From PubChem BioAssay AID463173 (ICCB-Longwood Screening Facility, Harvard Medical School, 2010)
About 4,300 (8.3%) of roughly 52,000 compounds were called active. No stated cut-off is given here; in the data, active means survival mostly below about 52% (no sharp cut-off); inactive means mostly above about 56%. The list shows a part of the results.

What follows are compounds tested on DeltatarO mutant (assay: growth inhibition of S. aureus wild type versus tarO mutant, primary screen, teichoic acid synthesis inhibitors, RN4220, OD600 (AID 463173)). Settings: OD600, 18 h, stronger effect = lower value, screened at 18.75 µg/mL (by protocol).

| Compound | survival |
| --- | --- |
| CC(C)N(C(=O)Cn1cc(SCC(=O)Nc2ccccc2F)c2ccccc21)C(C)C | inactive: 60% |
| CC12CN3CC(c4ccccc4)(CN(C1)C3c1ccc(O)cc1)C2=O (stereo not given) | inactive: 74% |
| Cn1c(=O)oc2cc(S(=O)(=O)NC(Cc3ccccc3)C(=O)Nc3ccc(F)cc3)ccc21 (stereo not given) | inactive: 84% |
| CCOC(=O)c1c(NC(=O)C(C)Sc2cn(CCNC(=O)c3c(F)cccc3F)c3ccccc23)sc2c1CCC2 (stereo not given) | inactive: 84% |
| COc1cccc(CNC(=O)c2cc(C)nc3c2c(C)nn3-c2ccc(C)cc2)c1 | inactive: 92% |
| CC(=O)OCC1OC(n2ccc3ccccc32)C(OC(C)=O)C(OC(C)=O)C1OC(C)=O (stereo not given) | inactive: 97% |
| COc1ccc(OC)c(NC(=O)CSc2ccc(-c3cccs3)nn2)c1 | inactive: 78% |
| COc1cc(OC)c(NC(=O)C2CCN(S(=O)(=O)c3c(C)noc3/C=C/c3c(C)cc(C)cc3C)CC2)cc1Cl | inactive: 101% |
| Cc1ccc(Cn2c(C(=O)O)c(CNCc3ccc(OC(C)C)cc3)c3ccc(C)cc32)cc1 | active: 11% |
| CN(Cc1ccccc1)C(=O)c1cn(C)c2ccc(S(=O)(=O)N3CCCCC3)cc2c1=O | inactive: 80% |
| COc1cccc(OCc2nc3ccccc3n2CCOc2ccc(C)cc2)c1 | active: 36% |
| CN(C)c1ccc(CN(Cc2ccco2)C(=O)c2ccc(C(C)(C)C)cc2)cc1 | inactive: 55% |
| CCOc1ccccc1NC(=O)NCc1ccc2c(c1)CCN2C(=O)c1ccccc1 | inactive: 129% |
| COc1ccc(/C=C\c2onc(C)c2S(=O)(=O)N2CCC(C(=O)Nc3ccc(F)cc3F)CC2)cc1 | inactive: 65% |
| O=C(NCc1ccccc1Cl)c1ccc2c(c1)NC(=O)C(CS(=O)(=O)Cc1ccc(F)cc1Cl)N2 (stereo not given) | inactive: 81% |
| O=C(NCCc1ccc(Cl)cc1)c1cnc2sc(N3CCOCC3)nn2c1=O | inactive: 77% |
| COc1cc(OC)c(Nc2nc3ccccc3c3nncn23)cc1Cl | inactive: 119% |
| O=C(O)CN1CC(=O)Nc2ccccc21 | inactive: 88% |
| CCc1ccc(CNC(=O)c2cc(=O)[nH]c3ccc(S(=O)(=O)N4CCCCC4)cc23)cc1 | inactive: 86% |
| CCOC(=O)c1c(C)oc2nc(C)nc(Nc3ccc(C)c(Cl)c3)c12 | inactive: 89% |
| CCOC(=O)c1c(NC(=O)c2cc(C(C)C)on2)sc(C(C)=O)c1C | inactive: 123% |
| Cc1c(Cl)ccc2sc(N3CCN(C(=O)C(C)C)CC3)nc12 | inactive: 107% |

| Compound | survival |
| --- | --- |
| Cc1ccc(Sc2c(C)nn(-c3ccccc3)c2OC(=O)C(C)(C)C)cc1 | active: -10% |
| Cc1ccc(-c2cc(C(=O)Nc3cc([N+](=O)[O-])ccc3C)no2)cc1F | inactive: 50% |
| COC(=O)c1c(NC(=O)C(C)Oc2ccc(Cl)c(C)c2)sc(C)c1C (stereo not given) | active: 15% |
| COc1ccc(OC)c(NS(=O)(=O)c2cc3c(cc2Cl)N(C(C)=O)CCO3)c1 | inactive: 75% |
| CCCC(=O)Nc1nncs1 | inactive: 73% |
| CCOc1ccc(NC(=O)CC2C(=O)N(c3ccc(F)cc3)C(=O)N2Cc2ccc(OC)c(OC)c2)cc1 (stereo not given) | inactive: 90% |
| Cc1ccc(C)c2sc(NC(=O)c3ccc(S(=O)(=O)N4CCC(C)CC4)cc3)nc12 | inactive: 83% |
| O=C(CSc1nc2cc(C(=O)NC3CCCC3)ccc2c(=O)n1CC1CCCO1)c1cccc(Cl)c1 (stereo not given) | active: 20% |
| CCN1C(=O)c2ccccc2S(=O)c2ccc(C(=O)NCc3ccc(OC)cc3)cc21 (stereo not given) | inactive: 66% |
| COc1ccc(OC)c(CCNC(=O)CS(=O)(=O)Cc2nc(-c3cccc(Cl)c3)oc2C)c1 | inactive: 56% |
| CCOC(=O)c1ccc(N2C(=O)c3n[nH]c(-c4cccs4)c3C2c2ccc(OCC)cc2)cc1 (stereo not given) | inactive: 93% |
| COc1ccc(CCNc2oc(/C=C/c3cc(OC)c(OC)c(OC)c3)nc2C#N)cc1OC | inactive: 56% |
| CCCc1nc(NCCc2cccs2)c2nnn(Cc3ccccc3Cl)c2n1 | inactive: 85% |
| CCOC(=O)c1ccc(N2C(=O)c3[nH]nc(-c4ccccc4)c3C2c2ccc(CC)cc2)cc1 (stereo not given) | inactive: 100% |
| CCOc1ccccc1C(=O)N(Cc1ccco1)Cc1ccco1 | inactive: 73% |
| Cc1c(Cl)cccc1NC(=O)CC1Oc2ccccc2NC1=O (stereo not given) | inactive: 89% |
| COc1ccccc1CNC(=O)C1CCCN(S(=O)(=O)c2ccc3c(c2)oc(=O)n3C)C1 (stereo not given) | inactive: 83% |
| COc1ccc(-c2cc(C(=O)Nc3c(C(=O)c4ccc(C)cc4)oc4ccccc34)no2)cc1 | inactive: 48% |
| O=C(c1ccc2c(c1)N(Cc1ccccc1F)C(=O)c1ccccc1S2(=O)=O)N1CCC(Cc2ccccc2)CC1 | inactive: 71% |
| O=C(Cn1c(=O)n(Cc2nc(-c3ccccc3)no2)c(=O)c2ccccc21)Nc1cccc(C(F)(F)F)c1 | inactive: 83% |
| CCCn1c(N2CCN(CC(=O)Nc3ccc(Cl)cc3)CC2)nc2ccccc21 | inactive: 77% |
| O=c1c2sc3ccccc3c2n(Cc2cccc(F)c2)c(=O)n1Cc1ccccc1 | inactive: 78% |

| Compound | survival |
| --- | --- |
| CCOC(=O)Cn1c(=O)n(CC2CCCO2)c2nc(-c3ccccc3OC)nc(C(N)=O)c21 (stereo not given) | inactive: 70% |
| O=C(NCc1cccs1)c1ccc2c(=O)n3nc(Nc4ccccc4)sc3nc2c1 | inactive: 96% |
| CCN(c1ccccc1)S(=O)(=O)c1ccc(NC(=O)c2nc(SC)ncc2Cl)cc1 | inactive: 55% |
| CCN(CC)c1ccc(NC(=O)C2CCN(c3nnc(-n4cccc4)s3)CC2)c(C)c1 | inactive: 70% |
| Cc1cc(C)n(C(C)CC(=O)Nc2cccc(C(F)(F)F)c2)n1 (stereo not given) | inactive: 73% |
| O=C(CCCn1c(=O)c2cccn2c2ccccc21)Nc1cc(C(F)(F)F)ccc1Cl | inactive: 62% |
| Cn1cc(-c2cc3n(n2)CCC(=O)N3CCCC(=O)NCc2ccc(Cl)cc2)c2ccccc21 | inactive: 122% |
| CC(C(=O)Nc1ccccc1C(=O)N1CCCC1)n1nnc2ccccc21 (stereo not given) | inactive: 77% |
| CCC(CC)C(=O)OCc1cc(=O)n2nc(C3CC3)sc2n1 | inactive: 62% |
| CC1=C(c2ccc(Cl)cc2)S(=O)(=O)NC1=NCCCN1CCN(c2cc(C)ccc2C)CC1 | inactive: 78% |
| CC1C(=O)Nc2ccc(S(=O)(=O)N3CCCCC3)cc2NC1=O (stereo not given) | inactive: 73% |
| O=C(CSc1nccn1Cc1ccccc1)NCc1ccco1 | inactive: 80% |
| COc1ccc(Cn2c(CCC(=O)Nc3cc(OC)c(OC)c(OC)c3)nc3cccnc32)cc1 | inactive: 128% |
| CCOc1ccc(NCc2cccn2-c2nnc(N3CCC(C(=O)NCC(C)c4ccccc4)CC3)s2)cc1 (stereo not given) | inactive: 79% |
| CCOc1ccccc1NC(=O)CN1C(=O)COc2ccc(S(=O)(=O)N3CCOCC3)cc21 | inactive: 94% |
| CC(C)C(OC(=O)c1cc2occc2n1C(C)C)C(=O)NCC1CCCO1 (stereo not given) | inactive: 67% |
| COc1ccc(-n2c(-c3ccc(C)cc3)cc3c2CC(C)(C)CC3=O)cc1Cl | inactive: 80% |
| CC1CCN(C(=O)Cn2c(=O)n(CC3CCC(C(=O)NC(C)C)CC3)c(=O)c3sccc32)CC1 (stereo not given) | inactive: 88% |
| CCOC(=O)c1ccc(NC(=O)CC2C(=O)N(c3ccc(F)cc3)C(=O)N2Cc2cccnc2)cc1 (stereo not given) | inactive: 95% |
| COc1ccc(-c2nc(SCC(=O)NC3CCCC3)c(-c3ccc(F)cc3)[nH]2)cc1 | inactive: 75% |
| Cc1[nH]c(=O)[nH]c(=O)c1N | inactive: 93% |
| O=C(Nc1cc(-c2nc3ccccc3o2)ccc1Cl)c1sc2c([N+](=O)[O-])cccc2c1Cl | inactive: 76% |

| Compound | survival |
| --- | --- |
| CC(C)(C)OC(=O)N1CCC(c2c(C(=O)NCc3cccc(Cl)c3)cnn2-c2ccc(F)cc2)CC1 | inactive: 94% |
| CCOc1ccc(CN2CCc3nc(N4CCN(c5ccccc5OC)CC4)ncc3C2)cc1OC | inactive: 115% |
| CCc1ccccc1NC(=O)CSc1nc(-c2cccc(Cl)c2)nc2c1Cc1c(CO)cnc(C)c1O2 | inactive: 50% |
| CCN1CCCC1CNC(=O)Nc1c[nH]c2ccc(OC)cc2c1=O (stereo not given) | inactive: 102% |
| COc1cc(/C=C(\C#N)C(=O)NCC2CCCO2)ccc1O (stereo not given) | inactive: 83% |
| CC(=O)Nc1ccc(NC(=O)CCc2nc3cccnc3n2Cc2cccs2)cc1 | inactive: 95% |
| Cc1cc(C)nc(SCc2noc(-c3ccc(Cl)cc3)n2)n1 | inactive: 97% |
| Cc1ccc(NC(=O)Cn2nc(C(=O)Nc3ccc(C)cc3)ccc2=O)cc1 | inactive: 74% |
| CC1CCN(Cc2c(O)ccc3c(=O)c(Oc4ccccc4Cl)c(C(F)(F)F)oc23)CC1 | inactive: 83% |
| NC(=Nc1ccccc1)SC1CC(=O)N(c2ccccc2)C1=O (stereo not given) | inactive: 93% |
| COc1ccc(CNS(=O)(=O)c2ccc(N3CCCCS3(=O)=O)cc2)cc1 | inactive: 74% |
| Cc1ccc(C(=O)Nc2ccc3c(c2)n(C)c(=O)c(=O)n3C)cc1 | inactive: 91% |
| O=C(COc1ccccc1F)Nc1ccc2nc(SCCOc3ccccc3)sc2c1 | inactive: 86% |
| Cc1ccc(NC(=O)Cn2c(=O)n(Cc3nc(-c4ccccc4)no3)c(=O)c3cc4c(cc32)OCO4)cc1F | inactive: 80% |
| COc1ccc(NC(=O)CC2C(=O)N(c3cccc(OC)c3)C(=O)N2CCc2cccs2)cc1 (stereo not given) | inactive: 74% |
| CC(C)c1ccc(Cn2c(COc3ccccc3)nc3ccccc32)cc1 | active: -1% |
| COc1ccc(S(=O)(=O)NCC(c2ccco2)S(=O)(=O)c2ccc(C)cc2)cc1F (stereo not given) | inactive: 75% |
| Cc1ccc(S(=O)(=O)N2CCCC(c3nc4c(nnn4Cc4ccc(OC(F)(F)F)cc4)c(=O)[nH]3)C2)cc1 (stereo not given) | inactive: 80% |
| O=C(Cn1c(=O)nc(-c2ccccc2)c2cc(Cl)ccc21)NCc1ccccc1 | inactive: 83% |
